Experimental data from PubChem BioAssay AID485344 (National Center for Advancing Translational Sciences (NCATS), 2010).
About 6,900 (2%) of roughly 340,000 compounds were called active. Cut-off read from the data, not from the text of the source: active = inhibition above about 30%; inactive = below that, where a call was filed. The list shows a part of the results, in another mix than the full data. Entries without a call were filed so in the source.

Each molecule was assayed against D(2) dopamine receptor (Homo sapiens) (UniProt P14416) (assay: HTS Assay for Allosteric Antagonists of the Human D2 Dopamine Receptor: Primary Screen for Antagonists). Details: HEK293 TREx D2 cells, calcium flux, dopamine EC80; at 10 µM; stronger effect = higher value.
In short: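 Tetracycline-induced HEK293 TREx cells expressing D2 receptor forced-coupled to calcium signalling, loaded with no-wash calcium dye. Compounds added and calcium flux read 180 s, then dopamine added at EC80 and read a further 180 s.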
Note: 0% is about no effect.

Sequence of UniProt P14416 (P14416 whole entry, looked up): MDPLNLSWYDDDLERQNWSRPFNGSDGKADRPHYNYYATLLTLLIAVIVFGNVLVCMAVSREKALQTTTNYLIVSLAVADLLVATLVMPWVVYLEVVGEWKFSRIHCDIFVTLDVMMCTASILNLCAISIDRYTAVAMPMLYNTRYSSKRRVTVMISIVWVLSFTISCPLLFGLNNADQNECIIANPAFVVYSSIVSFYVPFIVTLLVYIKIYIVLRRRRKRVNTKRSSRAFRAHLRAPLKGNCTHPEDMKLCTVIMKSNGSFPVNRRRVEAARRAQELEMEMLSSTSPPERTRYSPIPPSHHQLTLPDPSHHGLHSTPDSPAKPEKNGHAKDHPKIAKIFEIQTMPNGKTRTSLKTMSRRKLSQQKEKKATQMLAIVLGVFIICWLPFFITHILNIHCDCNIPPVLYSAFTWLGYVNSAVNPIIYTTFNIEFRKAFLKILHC

| Structure (SMILES) | inhibition |
| --- | --- |
| COC(=O)c1nc2n(n1)C(c1cc(OC)ccc1OC)C(C(=O)Nc1ccc(C)cc1C)=C(C)N2 (configuration not stated) | 6.85% |
| Cc1ccc(CN(C(=O)COc2c(C)cccc2C)C2CCS(=O)(=O)C2)o1 (configuration not stated) | 1.07% |
| CC(C)(C)C(=O)NCCc1csc2nc(-c3ccc(F)cc3)nn12 | -5.13% |
| Cc1ccc(Cl)cc1N1CCN(CCNC(=O)Nc2ccccc2Cl)CC1 | 0.336% |
| COc1ccc2nc(NC(=O)c3nc(S(=O)(=O)Cc4cccc(C)c4)ncc3Cl)sc2c1 | -3.81% |
| COc1ccc(NC(=O)c2cnc(SC)nc2C)c(OC)c1 | active: 37.8% |
| CCC1CCCCN1CCCNC(=O)CN1C(=O)CSc2ccc(S(=O)(=O)N3CCOCC3)cc21 (configuration not stated) | 17.7% |
| CCC(C)(C)NC(=O)C(c1cccn1C)N(C(=O)Cn1nnc2ccccc21)c1ccc(OC)cc1OC (configuration not stated) | active: 30.5% |
| CCOc1ccccc1NC(=O)Cn1ccn(Cc2ccc(C)cc2)c(=O)c1=O | 25.5% |
| CCOC(=O)Cn1nc(C)c(NC(=O)COc2ccc(Cl)cc2C)c1C | -1.41% |
| Cc1ccc(-c2cc(C(=O)Oc3ccccc3)c3cc(C)ccc3n2)cc1 | 2.34% |
| COc1ccc2c(c1)c1c(c(=O)n(-c3cccc(Cl)c3)c(=O)n1CC(=O)N1CCCC1)n2C | -10.1% |
| COc1ccc(CCNC(=O)NC2CCCCC2)cc1 | active: 30.8% |
| COCCCNC(=O)CSc1nc2c(sc3ccccc32)c(=O)n1CCCC(=O)NCCOC | 8.83% |
| Fc1ccccc1Cn1c(-c2ccccc2)nc2ccccc21 | 11% |
| O=C(c1cccs1)N1CCN(Cc2ccc3c(c2)OCO3)CC1 | active: 86.6% |
| CC(=O)c1ccc(NC(=O)COCc2cc(-c3ccco3)on2)cc1 | -2.05% |
| COc1cccc(N2CC(NC(=O)c3cccc(OC)c3OC)CC2=O)c1 (configuration not stated) | 27.9% |
| Cc1ccccc1OCc1nnc(SCc2cc(=O)c3cccc(F)c3[nH]2)n1C | -26.1% |
| CCC(C)NC(=O)CSc1nc2c(sc3ccccc32)c(=O)n1Cc1ccccc1Cl (configuration not stated) | 1.31% |
| Cc1cccc2nc(-c3cccc(NS(=O)(=O)c4ccccc4)c3)cn12 | -3.24% |
| Cc1ccc(C)c(CSc2nc3ccncc3n2CC(=O)Nc2ccc(N(C)C)cc2)c1 | 4.26% |
| Cc1cc(C)c(NC(=O)Nc2ccc3snnc3c2)c(C)c1 | -8.71% |
| Clc1ccccc1CNc1ncnc2c1c(-c1ccccc1)cn2-c1ccccc1 | -7.55% |
| Cc1ccc(NC(=O)CSc2nc(-c3ccco3)nc3cc(=O)[nH]n23)cc1C | 0.683% |
| Cc1ccc(C)c(Cn2c3ccccc3c3cnn(CC(=O)NCc4ccccc4)c(=O)c32)c1 | -0.21% |
| CC1CCN(c2cc3c(cc2F)c(=O)c(S(=O)(=O)c2ccc(Cl)cc2)cn3C)CC1 | 8.16% |
